Results reported in the RNAGym collection of RNA variant scans (doi:10.7554/elife.90254).
Read counts are not given, so values of variants with three or more changes are uncertain.

B1: LINE1-mini (parent)
chain: GGCAGAGCUCAACACAGCGUGGCAAAGUGGCUGUGGCUAGACUGCC

Variants of: B1
Experiment: self-cleavage, relative activity (ratio to wild type); higher = more cleavage; in vitro, sequencing; the parent is a self-cleaving ribozyme

| Variant | self-cleavage |
| --- | --- |
| A12C A26G G35A | 0.02 |
| A12C A39U G44A | 0.04 |
| A12C C13A C18U G21U C23U G30A U38C C45G | 0.01 |
| A12C C13A G17A | 0.06 |
| A12C C13A G17C U38A C45A | 0.05 |
| A12C C13A U32C G36U | 0.04 |
| A12C C13A U32G G35C | 0 |
| A12C C13G C15A G22U G30C A41G | 0.03 |
| A12C C13G C15G C23A G27A U32G A39G | 0.01 |
| A12C C13U G19U | 0.01 |
| A12C C13U U20G G33A G40U | 0.01 |
| A12C C15A G21A | 0.02 |
| A12C C15A G21U G22U G35U | 0.04 |
| A12C C15G A16G C42U | 0 |
| A12C C15G C18A A25U | 0.02 |
| A12C C15U U20G A25U G40C | 0.01 |
| A12C C18A G19C G29C U34C C46G | 0.03 |
| A12C C18G G40U | 0.01 |
| A12C C18G G44U | 0.02 |
| A12C C23A G30U | 0.02 |
| A12C C23U U28A A39G C45A | 0.01 |
| A12C C23U U34G A39U C45A | 0 |
| A12C C31A C45A | 0.01 |
| A12C C37A C42G | 0.01 |

| Variant | self-cleavage |
| --- | --- |
| A12C C37G C45G | 0.01 |
| A12C G17A U34G G44A | 0.03 |
| A12C G17A U43C | 0 |
| A12C G17U C18U G35C U43A C46U | 0 |
| A12C G17U C42A | 0.04 |
| A12C G17U C45A | 0 |
| A12C G17U U20C G22A G36A | 0.02 |
| A12C G17U U43G | 0 |
| A12C G19A G35C G44U | 0 |
| A12C G19A U20A U28G A41C C42G | 0 |
| A12C G19C U28A G36A G40C C42A | 0 |
| A12C G21A U38A | 0 |
| A12C G21C C23U G33U | 0.08 |
| A12C G21C C46U | 0 |
| A12C G21C G33U C45G | 0.01 |
| A12C G21U A25C A26C | 0.01 |
| A12C G21U C37A | 0.04 |
| A12C G21U G44U | 0.04 |
| A12C G22A A26G | 0.02 |
| A12C G22A C37A | 0.02 |
| A12C G22A G27U U28A G40A C45A | 0.01 |
| A12C G22C U28A | 0 |
| A12C G27C G29U C31A C45A | 0 |
| A12C G27U A41G | 0.08 |

| Variant | self-cleavage |
| --- | --- |
| A12C G27U C37U G44A | 0.02 |
| A12C G27U U32C G33C A41U | 0.01 |
| A12C G29A C31U G35U A39C | 0.02 |
| A12C G30A U34C | 0.01 |
| A12C G30U C31A | 0.02 |
| A12C G33A U43G C45G | 0.01 |
| A12C G33U C42U | 0.02 |
| A12C G36A A41G C42G G44C | 0 |
| A12C G36U A41G | 0 |
| A12C U20A G30A C31G | 0 |
| A12C U20C A26G G44A | 0.01 |
| A12C U20C C45G | 0.05 |
| A12C U20C G27C U28C | 0 |
| A12C U20C G29A | 0.03 |
| A12C U20C G33U G36U C46G | 0.01 |
| A12C U20G A24U U38G | 0 |
| A12C U20G C23A G29A G33U | 0 |
| A12C U20G C31A | 0.06 |
| A12C U28A G44U | 0.03 |
| A12C U32C A39G C42A | 0.02 |
| A12C U34A U38C | 0.03 |
| A12C U34C G35C C37A | 0 |
| A12C U34C U38G U43A C45U | 0 |
| A12C U43A C45A | 0.02 |

| Variant | self-cleavage |
| --- | --- |
| A12C U43A C46A | 0.01 |
| A12G A14C A24G | 0.03 |
| A12G A14C U34A | 0.02 |
| A12G A14G A25G A39U | 0.01 |
| A12G A14G C18U | 0.02 |
| A12G A14G G17C C18A G29A | 0.01 |
| A12G A14G G19C A25C G29A | 0.11 |
| A12G A14U G35A | 0.01 |
| A12G A16C C18G | 0 |
| A12G A16C C31A G35U C46U | 0.04 |
| A12G A16C C42A | 0.08 |
| A12G A16G U38A | 0.04 |
| A12G A16U U34A | 0.02 |
| A12G A24U C42A | 0.07 |
| A12G A25G U28A | 0.05 |
| A12G A25U A41G | 0.01 |
| A12G A25U U28A | 0.01 |
| A12G A26C C37U | 0.03 |
| A12G A26C G30U U43G C45G | 0.01 |
| A12G A26G A39C | 0.16 |
| A12G A39G U43C | 0 |
| A12G C13A G30A U32A | 0.02 |
| A12G C13A G30U | 0 |
| A12G C13A G35U C37G | 0 |

| Variant | self-cleavage |
| --- | --- |
| A12G C13A G40C | 0.01 |
| A12G C13G G21U C23U A26C U43G | 0.03 |
| A12G C13G G30A | 0 |
| A12G C13G G30U G33A C42G | 0 |
| A12G C13U A24U | 0.04 |
| A12G C13U C15G A16G C31A C37A U43C | 0 |
| A12G C13U G17C C18U U28C | 0.02 |
| A12G C13U G27C C46A | 0.02 |
| A12G C13U G29A | 0.03 |
| A12G C13U G30A | 0 |
| A12G C13U U20C G30U | 0.04 |
| A12G C15A C31A G35U | 0.01 |
| A12G C15A U28C C42A | 0.02 |
| A12G C15G A26U G27U G40A | 0.05 |
| A12G C15G G27C | 0.02 |
| A12G C18A G21U | 0.04 |
| A12G C18G A24U U38C U43A | 0 |
| A12G C18G C45U | 0.03 |
| A12G C18G G27A U43A | 0.06 |
| A12G C18G U28C U32A C37G | 0.01 |
| A12G C18U A24C G35A | 0.01 |
| A12G C23A A39U G40C | 0.07 |
| A12G C23A C31U U34A G35U C42G C45A | 0.01 |
| A12G C23A G35A | 0.02 |

| Variant | self-cleavage |
| --- | --- |
| A12G C23A U32G G35U U38C | 0.03 |
| A12G C23G G29C | 0 |
| A12G C23U A26G G36U C46U | 0.01 |
| A12G C23U C31U U34C | 0.05 |
| A12G C31A U32G G33C C45G | 0.03 |
| A12G C31G C45G | 0.02 |
| A12G C31U G40U | 0.03 |
| A12G C37A A39U | 0.17 |
| A12G G17A A24G | 0.05 |
| A12G G17A A25C C31A | 0.03 |
| A12G G17A G29U A41U | 0.02 |
| A12G G17A G33C A39C | 0 |
| A12G G17C A26U U32A C45U | 0.05 |
| A12G G17U C18G G21U A39C | 0.01 |
| A12G G17U C37A C45G | 0 |
| A12G G17U C42G | 0.1 |
| A12G G17U G19A G40U | 0.01 |
| A12G G19A A41G | 0.02 |
| A12G G19C G44A | 0.02 |
| A12G G19U G21C G44A | 0.01 |
| A12G G19U G36A C42U | 0.01 |
| A12G G21C A41C U43C C46U | 0.02 |
| A12G G21U A41U | 0.12 |
| A12G G22U A41G | 0.04 |

| Variant | self-cleavage |
| --- | --- |
| A12G G22U C23A U32G G33A U34C | 0.14 |
| A12G G27A G29U G30A C42G | 0.01 |
| A12G G27C C37U | 0.01 |
| A12G G27U U38A | 0.01 |
| A12G G29C C45A | 0.01 |
| A12G G29C U32C G40C | 0.03 |
| A12G G29U U32C G33C C37A | 0.04 |
| A12G G30A A39G | 0 |
| A12G G30C A39G C42G | 0 |
| A12G G33A U38C | 0.49 |
| A12G G33C A39G | 0.02 |
| A12G G35A C45A | 0.01 |
| A12G G35C C46A | 0.05 |
| A12G G36A U38G | 0.01 |
| A12G G36U C46G | 0.01 |
| A12G U20A A25G G30C | 0.03 |
| A12G U20A C42G | 0.03 |
| A12G U20A G30A A39G C46A | 0.01 |
| A12G U20A G30A C37G | 0 |
| A12G U20A G33U G44U | 0 |
| A12G U20G A25C A26U C31U C37G | 0 |
| A12G U28A C31U | 0.01 |
| A12G U28A G33U G35A C42G | 0.04 |
